Assay results published in PubChem BioAssay AID1347073 (National Center for Advancing Translational Sciences (NCATS), 2019).
Among all 45,000 compounds or so, about 200 (0.44%) were called active. Roughly 7% stayed inconclusive and do not appear here. Calls come from the whole dose curve; as a rule, active = well fitted activation curve with a large enough effect; inconclusive = small, poorly fitted or top-dose-only effect; inactive = no such curve, though single readings can be large or run the other way. Some of the results follow.

Test: qHTS of TDP-43 Inhibitors: NCGC Sytravon Library Screen; note: 0% is about no effect; nearly all actives have a fitted effect of over 55% in size
Conditions: yeast TDP-43 toxicity rescue, BacTiter-Glo growth, 24 h; series mostly up to 46.1 µM; growth rescue (activation): at the top concentration
Method in brief: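 TDP-43-expressing yeast, pregrown in raffinose, seeded at OD600 0.02 in galactose medium with compound for 24 hr at 30 deg C. Growth read by BacTiter-Glo luminescence, so rescue of toxicity appears as activation.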

Row | SMILES | growth rescue (activation)
1 | O=C(COc1ccc(Cl)cc1Cl)N/N=C/c1cccnc1 | inactive: -17.7%
2 | CN1CCN(C(=O)CCN2C(=O)/C(=C/c3cccc(Br)c3)SC2=S)CC1 | inactive: -2.3%
3 | Cc1[nH]c2ccccc2c1C(=O)CN1CCSCC1 | inactive: -6.52%
4 | CCOC(=O)c1sc(NC(=O)COC(=O)c2ccco2)nc1C | inactive: 10.9%
5 | CCC(O)c1nc2ccccc2n1CCc1ccccc1 (stereo unspecified) | inactive: -12.7%
6 | Clc1ccc(Cl)c(OCc2cc(-c3ccccc3Cl)on2)c1 | inactive: -7.43%
7 | Cn1c(CNc2ccc(Br)cc2)nc2ccccc21 | inactive: -14.7%
8 | CC1CCN(S(=O)(=O)c2ccc(NC(=O)C3CCCCC3C(=O)O)cc2)CC1 (stereo unspecified) | inactive: -2.29%
9 | CCOc1ccc(/C(CCC(=O)O)=N/NC(=O)c2cccc(S(=O)(=O)Nc3ccccc3OC)c2)cc1 | inactive: 5.91%
10 | CC(c1nnc(SCC(=O)Nc2cc([N+](=O)[O-])ccc2F)n1Cc1ccccc1)N(C)C (stereo unspecified) | inactive: -4.8%
11 | Cc1ccccc1N1CC(C(=O)O)CC1=O (stereo unspecified) | inactive: -4.34%
12 | CCCCNC(=S)N/N=C/c1ccc(C#N)cc1 | inactive: 17.2%
13 | Cc1ccc(NC(=O)CCCC(=O)OC(C)C(=O)c2ccccc2)cc1 (stereo unspecified) | inactive: -2.95%
14 | O=C(CCCN1C(=O)/C(=C/c2cccc(Br)c2)SC1=S)Nc1cccnc1 | inactive: -0.14%
15 | Cc1c(N2C(=O)C3C4C=CC(C5CC45)C3C2=O)c(=O)n(-c2ccccc2)n1C (stereo unspecified) | inactive: -17.2%
16 | CSc1ccc(C(=O)C2CCCN(C(=O)Cc3nonc3C)C2)cc1 (stereo unspecified) | inactive: 9.77%
17 | Cc1cccc(C(=O)Oc2ccccc2/C=N/NC(=O)c2ccc(NC(=O)C(C)(C)C)cc2)c1 | inactive: -0.191%
18 | O=C(CCn1cnc2onc(-c3ccc(F)cc3)c2c1=O)Nc1ccc(F)c(Cl)c1 | inactive: 8.37%
19 | Nc1ccc(S(=O)(=O)Nc2nccc(/C=C/c3ccc(Cl)cc3)n2)cc1 | inactive: -8.67%
20 | CCOC(=O)c1nc(C)n(-c2ccc([N+](=O)[O-])cc2)n1 | inactive: -4.72%
21 | CCCn1c(=O)c(C(=O)NCc2ccccc2)c(O)c2ccccc21 | inactive: -3.17%
22 | COCCCNC1=C(Cl)C(=O)c2ccccc2C1=O | inactive: 29.3%

Row | SMILES | growth rescue (activation)
23 | O=C1N/C(=N\c2ccccn2)SC1Cc1ccc(Cl)cc1 (stereo unspecified) | inactive: -2.81%
24 | O=C(COC(=O)CN1C(=O)C2CCCCC2C1=O)Nc1cc(F)ccc1F (stereo unspecified) | inactive: 19.6%
25 | Nc1n[nH]c(N)c1N=Nc1ccccc1F | inactive: 7.26%
26 | O=C(N/N=C/c1cccnc1)c1cc(C2CC2)nc2ccccc12 | inactive: 7.1%
27 | Cc1cc(C)n(CC(=O)N2CCc3ccccc32)c(=O)c1C#N | inactive: -11.8%
28 | O=C(/C=C\c1ccco1)c1ccc(NC(=O)c2ccco2)cc1 | inactive: 8.34%
29 | CCN(Cc1ccccc1)C(=O)CN1C(=O)NC(CC)(c2ccc(F)cc2)C1=O (stereo unspecified) | inactive: 9.05%
30 | COc1ccc(OC)c(S(=O)(=O)N2CCCC(C(=O)N3CCCCCC3)C2)c1 (stereo unspecified) | inactive: 18.3%
31 | Cc1cc2oc(=O)cc(CN3CCN(S(=O)(=O)c4cccs4)CC3)c2cc1C | inactive: 10.4%
32 | CCC(Sc1nccn1C)C(=O)Nc1ccc(Cl)cn1 (stereo unspecified) | inactive: -7.51%
33 | O=C(Cn1ccc2ccccc2c1=O)NCC(=O)N1CCCCC1 | inactive: 10.3%
34 | CCOc1ccc(NS(=O)(=O)c2ccc3ncsc3c2)cc1 | inactive: 25.2%
35 | COc1ccc(C(=O)OCC(=O)N2CCCCC2)cc1[N+](=O)[O-] | inactive: 0.628%
36 | CCOCCCNC(=O)C1CCCN(S(=O)(=O)c2cccc3nsnc23)C1 (stereo unspecified) | inactive: 3.61%
37 | COCCn1c(-c2ccccc2)csc1=Nc1cccnc1 | inactive: 6.11%
38 | CC(C)NC(=O)c1ccc2c(c1)N(CC(=O)N1CCCC1)C(=O)C(C)(C)O2 | inactive: -2.45%
39 | CCOC(=O)c1cnc2cc(F)c(F)cc2c1N1CCOCC1 | inactive: 27%
40 | Cc1ccc(OCC(=O)N/N=C2/SCC(=O)N2Cc2ccccc2)cc1 | inactive: -0.486%
41 | CCc1cc2c(=O)n3c(nc2s1)-c1[nH]c2ccc(OC)cc2c1CC3 | inactive: 4.11%
42 | O=C(N/N=C\C=C\c1ccc2c(c1)OCO2)c1ccc(F)cc1 | inactive: 17.3%
43 | Cc1ccccc1NC(=O)Cc1nnc(SCC(=O)NC2CCCCC2)n1C | inactive: 3.92%
44 | CCN(CC)S(=O)(=O)c1ccc(N2CC(C(=O)NCc3cccnc3)CC2=O)cc1 (stereo unspecified) | inactive: -5%

Row | SMILES | growth rescue (activation)
45 | O=C(Nc1ccccc1)Nc1ccccc1NS(=O)(=O)c1cccs1 | inactive: 11.7%
46 | Cc1cccc(N2CCN(c3ccc(N4C(=O)CCCC4=O)cc3[N+](=O)[O-])CC2C)c1 (stereo unspecified) | inactive: 5.56%
47 | CCN(CC)S(=O)(=O)c1cccc(-c2nnc(SCCOc3ccccc3)o2)c1 | inactive: 15.5%
48 | COc1cc(C(=O)OCC(=O)NC2CCCC2)cc(OC)c1OC | inactive: 2.23%
49 | CNC(=S)NNC(=O)c1cccn(Cc2ccccc2)c1=O | inactive: 6.58%
50 | Cc1ccc(CSC(Nc2ccc(F)cc2)=C(C#N)C#N)cc1 | inactive: 14.7%
51 | O=C(O)c1ccccc1NC(=S)NC(=O)c1cccc2ccccc12 | inactive: 8.69%
52 | COc1ccccc1C(=O)NCC(=O)OCc1ccc(Br)cc1 | inactive: 2.91%
53 | CCOCCCN(C(=O)c1snc(C(N)=O)c1N)C(C(=O)NC1CCCC1)c1ccc(F)cc1 (stereo unspecified) | inactive: -18.9%
54 | O=C(CSc1nc2ccccc2c(=O)n1-c1ccc(F)c(Cl)c1)Nc1cccc(S(=O)(=O)N2CCOCC2)c1 | inactive: 5.75%
55 | Cc1ccc(C(=O)NC2CCN(C(=O)Nc3ccc(F)cc3)CC2)cc1 | inactive: 5.39%
56 | COc1ccc(CCN2CN(S(=O)(=O)c3ccc(OC)cc3)c3nc4ccccc4nc32)cc1 | inactive: 2.14%
57 | COc1ccc(NC(=O)Nc2ccc([N+](=O)[O-])cc2)cn1 | inactive: -22.9%
58 | c1ccc(CN2CCN(c3nc(-c4ccccc4)nc4ccccc34)CC2)cc1 | inactive: 26.2%
59 | COc1cc(/C=N/NC(=O)c2cccnc2)ccc1OS(=O)(=O)c1cc(C)ccc1C | inactive: 17.4%
60 | CC(C)Oc1cc(NC(=O)CS(=O)(=O)CC(=O)N(C)C)c(Cl)cc1Cl | inactive: 2.69%
61 | CC1(C)Cc2c(c(N3CCOCC3)nc3sc(C(=O)Nc4ccc(Cl)cc4)c(N)c23)CO1 | inactive: -2.24%
62 | CC(C)NC(=O)NC(=O)COC(=O)Cc1ccsc1 | inactive: 11%
63 | CCOC(=O)c1ccc(N/C=C/C(=O)c2ccccc2)cc1 | inactive: 6.85%
64 | CCN(CC)S(=O)(=O)c1cc(NC(=O)CCc2c(C)noc2C)ccc1C | inactive: 0.455%
65 | Cc1ccccc1CNC(=O)Cn1c(C)c2cnn(-c3ccccc3)c(=O)c2c1C | inactive: 13.5%
66 | Cc1ccccc1Cn1c(=N)n(CC(=O)c2ccco2)c2ccccc21 | inactive: 1.69%

Row | SMILES | growth rescue (activation)
67 | CCOC(=O)C1(C)CCCCCN1C(=O)/C=C/c1ccccc1 (stereo unspecified) | inactive: 20.1%
68 | CCOc1ccc(N2CC(C(=O)NC3CCCC3)CC2=O)cc1 (stereo unspecified) | inactive: -4.75%
69 | O=C(NC1CCCCC1)c1cc(S(=O)(=O)N2CCN(c3ccccc3)CC2)ccc1Cl | inactive: -1.93%
70 | CC(C)C(NC(=O)c1ccccc1NC(=O)C(C)(C)C)C(=O)N1CCOCC1 (stereo unspecified) | inactive: 18.7%
71 | CCCC(=O)N1CCC1(C)C(=O)NS(=O)(=O)c1ccc(C(C)(C)C)cc1 (stereo unspecified) | inactive: 4.47%
72 | CC1(C(=O)NS(=O)(=O)C2CC2)CCCN(C(=O)c2ccccc2)C1 (stereo unspecified) | inactive: 12.7%
73 | Cn1c(-c2cccs2)[n+](C)c2ccccc21 | inactive: -4.89%
74 | CC(=O)Nc1cccc(-c2ccnc3c2CC(C(=O)NCc2ccco2)O3)c1 (stereo unspecified) | inactive: 12.9%
75 | O=C(Nc1ccccc1C(F)(F)F)N1CCCC(O)C1 (stereo unspecified) | inactive: 26.6%
76 | CCOc1ccc(N(CC(=O)NN=C2CCN(C)CC2)S(=O)(=O)c2ccc(Br)cc2)cc1 | inactive: -3.75%
77 | Cc1cccc(NC(=O)c2cc3c(=O)n4ccccc4nc3s2)c1 | inactive: 0.575%
78 | Cc1cccc(NC(=O)CC2Nc3cccc4cccc(c34)NC2=O)c1 (stereo unspecified) | inactive: 1.52%
79 | COC(=O)CNC(=O)c1cccc(-c2ccc(OC)cc2)c1 | inactive: 23.3%
80 | CCCC1=NN(c2ccc([N+](=O)[O-])cc2)C(=O)/C1=C/N(C)C | inactive: 6.7%
81 | CCN(CC(=O)Nc1ccc(NC(C)=O)cc1)CC(=O)Nc1cccc(Cl)c1 | inactive: -20%
82 | CCc1nc(NCC2CCCO2)c2oc3ccccc3c2n1 (stereo unspecified) | inactive: -1.46%
83 | COc1cccc(OCCCN2CCCCCC2)c1 | inactive: 1.49%
84 | Cc1nn(-c2ccc(F)cc2)c(Cl)c1/C=C/C(=O)OCC(=O)Nc1ccc(F)cc1F | inactive: 0.59%
85 | CCOC(=O)C1CCCN(C(=O)/C=C/c2ccccc2[N+](=O)[O-])C1 (stereo unspecified) | inactive: 25.5%
86 | CCOC(=O)N1CCC(NC(=O)c2ccc3c(c2)N(Cc2ccccc2)C(=O)c2ccccc2S3(=O)=O)CC1 | inactive: 7.37%
87 | COc1cccc(C(=O)N2CCCN(C)CC2)c1OC | inactive: 3.54%
88 | CCOC(=O)c1cc(-c2ccccc2)sc1NC(=O)C(C)(C)C | inactive: 33.9%

Row | SMILES | growth rescue (activation)
89 | CCNC(=O)NC(=O)C(C)OC(=O)CCCc1nc2ccccc2s1 (stereo unspecified) | inactive: 19.4%
90 | COCCNc1ccc(N2C(=O)CCCC2=O)cc1[N+](=O)[O-] | inactive: 2.17%
91 | CC(OC(=O)c1ccc(S(=O)(=O)NCc2ccco2)cc1)C(=O)Nc1ncc(Cl)cc1Cl (stereo unspecified) | inactive: 5.91%
92 | COc1ccc(C(C)(NC(C)=O)c2nc(-c3cncnc3)cs2)cc1 (stereo unspecified) | inactive: 1.33%
93 | O=C(CN1CCc2ccccc2C1)Nc1cc(S(=O)(=O)N2CCOCC2)ccc1N1CCOCC1 | inactive: -0.905%
94 | Cc1c(C(=O)N2CCC(C)(C(=O)NS(=O)(=O)C3CC3)C2)oc2ccccc12 (stereo unspecified) | inactive: -9.51%
95 | Cc1cccc(OCCCC(=O)Nc2ccc(N(C)C)cc2)c1 | inactive: 8.4%
96 | COc1ccc(NC(=O)c2nc(C)n(-c3ccc([N+](=O)[O-])cc3)n2)cc1 | inactive: 25.4%
97 | CC(C)C(C)NC(=O)CN1C(=O)NC(C)(c2ccc3ccccc3c2)C1=O (stereo unspecified) | inactive: 1.05%
98 | CCOc1ccc(S(=O)(=O)N(CCO)CCO)cc1-c1nc2c(C(C)(C)C)nn(C)c2c(=O)[nH]1 | inactive: 10.1%
99 | CC1(C)CC(=O)C(C2c3ccccc3S(=O)(=O)c3ccccc32)C(=O)C1 | inactive: -6.72%
100 | CN(c1ccccc1)S(=O)(=O)c1cccc(NC(=O)CCNC(=O)c2ccc([N+](=O)[O-])cc2)c1 | inactive: -13%
101 | Cc1cc(C)n(CCNC(=O)c2cc(COc3c(F)cccc3F)on2)n1 | inactive: 15.6%
102 | CC(=O)c1cccc(NC(=O)C(C)N(C)CC(=O)Nc2ccc(Cl)cc2)c1 (stereo unspecified) | inactive: 16.7%
103 | O=C(c1ccc2c(c1)OCO2)N1CCN(CCN2C(=O)c3cccc4cccc(c34)C2=O)CC1 | inactive: 23.6%
104 | Cc1ccc(-c2oc3ccccc3c(=O)c2OCC(=O)O)cc1 | inactive: -0.661%
105 | Cc1cc(Cl)ccc1OCC(=O)OC(C)C(=O)N(C)C (stereo unspecified) | inactive: 11.9%
106 | O=C(NC(=S)N1CCCCCC1)c1ccc(Cl)cc1Cl | inactive: -1.76%
